Measurements: PubChem BioAssay AID504333 (National Center for Advancing Translational Sciences (NCATS), 2011)
The campaign covered roughly 360,000 compounds. About 16,000 (4.4%) were called active. Inconclusive means that the source gave no clear call. Such entries were picked first, then a sample of the others. Calls follow the shape of the dose curve; as a rule, active = well fitted inhibition curve with a large enough effect; inconclusive = small, poorly fitted or top-dose-only effect; inactive = no such curve, though single readings can be large or run the other way. Where the call is inconclusive, the potency comes from a doubtful curve fit.

biological target: Bromodomain adjacent to zinc finger domain protein 2B (Homo sapiens) (UniProt Q9UIF8); test: qHTS Assay for Inhibitors of BAZ2B; conditions: AlphaScreen BAZ2B-H3K14Ac peptide displacement; activity change, negative = inhibition: at 114 µM (top of the series); also: nearly all actives have a fitted effect of over 60% in size
Chain of UniProt Q9UIF8 (Q9UIF8 whole entry, looked up, the tested form may be a part): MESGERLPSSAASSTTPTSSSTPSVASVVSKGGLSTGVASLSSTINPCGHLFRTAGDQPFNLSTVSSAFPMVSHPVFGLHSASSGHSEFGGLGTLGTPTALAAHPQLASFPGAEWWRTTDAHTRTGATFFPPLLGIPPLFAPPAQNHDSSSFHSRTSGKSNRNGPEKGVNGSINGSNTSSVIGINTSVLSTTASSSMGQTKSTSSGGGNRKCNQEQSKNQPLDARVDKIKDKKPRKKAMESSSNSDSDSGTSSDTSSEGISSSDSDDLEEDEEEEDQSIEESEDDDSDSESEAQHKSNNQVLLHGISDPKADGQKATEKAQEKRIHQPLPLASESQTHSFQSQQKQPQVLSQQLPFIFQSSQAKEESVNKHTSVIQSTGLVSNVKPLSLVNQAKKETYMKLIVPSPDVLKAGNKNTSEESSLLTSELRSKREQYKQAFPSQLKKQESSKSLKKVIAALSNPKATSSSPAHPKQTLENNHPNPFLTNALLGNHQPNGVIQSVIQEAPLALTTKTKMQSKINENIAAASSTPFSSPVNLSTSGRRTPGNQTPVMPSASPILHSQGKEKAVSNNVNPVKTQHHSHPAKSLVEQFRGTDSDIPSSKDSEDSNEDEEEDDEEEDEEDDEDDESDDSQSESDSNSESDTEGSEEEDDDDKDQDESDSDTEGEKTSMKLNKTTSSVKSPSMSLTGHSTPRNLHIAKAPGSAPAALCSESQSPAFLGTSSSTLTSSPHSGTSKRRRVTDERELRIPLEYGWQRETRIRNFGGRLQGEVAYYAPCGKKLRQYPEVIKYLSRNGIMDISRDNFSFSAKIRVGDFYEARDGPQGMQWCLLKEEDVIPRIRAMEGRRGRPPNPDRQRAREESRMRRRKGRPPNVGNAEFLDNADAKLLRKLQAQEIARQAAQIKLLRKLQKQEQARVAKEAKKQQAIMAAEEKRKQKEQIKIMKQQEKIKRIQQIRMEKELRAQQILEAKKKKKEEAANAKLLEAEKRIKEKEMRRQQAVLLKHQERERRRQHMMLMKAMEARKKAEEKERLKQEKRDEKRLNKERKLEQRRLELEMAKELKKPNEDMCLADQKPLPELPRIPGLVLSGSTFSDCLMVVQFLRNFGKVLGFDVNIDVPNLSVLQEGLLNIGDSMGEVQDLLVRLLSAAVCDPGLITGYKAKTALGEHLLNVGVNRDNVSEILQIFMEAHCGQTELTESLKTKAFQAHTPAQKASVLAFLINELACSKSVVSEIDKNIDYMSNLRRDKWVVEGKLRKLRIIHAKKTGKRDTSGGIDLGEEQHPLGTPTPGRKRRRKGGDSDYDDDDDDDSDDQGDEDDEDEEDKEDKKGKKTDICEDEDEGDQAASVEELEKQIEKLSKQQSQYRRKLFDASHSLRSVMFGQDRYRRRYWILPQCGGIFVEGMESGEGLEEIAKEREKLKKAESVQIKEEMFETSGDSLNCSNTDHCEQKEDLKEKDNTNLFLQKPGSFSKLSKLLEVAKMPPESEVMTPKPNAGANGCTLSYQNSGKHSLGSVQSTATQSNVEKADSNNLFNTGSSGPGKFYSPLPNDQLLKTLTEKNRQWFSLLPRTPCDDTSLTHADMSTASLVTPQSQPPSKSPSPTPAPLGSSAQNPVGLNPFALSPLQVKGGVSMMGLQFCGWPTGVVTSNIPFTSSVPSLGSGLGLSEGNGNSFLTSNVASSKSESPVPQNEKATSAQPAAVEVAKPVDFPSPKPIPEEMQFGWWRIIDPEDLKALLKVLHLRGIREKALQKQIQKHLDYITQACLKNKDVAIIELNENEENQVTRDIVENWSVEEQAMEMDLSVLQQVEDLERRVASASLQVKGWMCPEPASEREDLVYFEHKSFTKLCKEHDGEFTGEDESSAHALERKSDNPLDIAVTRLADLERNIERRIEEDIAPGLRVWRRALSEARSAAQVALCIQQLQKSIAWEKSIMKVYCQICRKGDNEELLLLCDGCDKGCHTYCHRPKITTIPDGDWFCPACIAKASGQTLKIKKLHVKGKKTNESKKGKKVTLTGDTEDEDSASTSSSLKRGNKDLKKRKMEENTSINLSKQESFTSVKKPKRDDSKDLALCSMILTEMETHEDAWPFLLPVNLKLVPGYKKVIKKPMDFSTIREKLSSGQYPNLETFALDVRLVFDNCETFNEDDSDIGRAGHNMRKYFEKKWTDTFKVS
How it was run: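 BAZ2B 50 nM plus b-H3(5-23)K14Ac 50 nM, PBS pH 7.4/0.01% Tween-20, 30 min RT; compound added (max 110 uM), 30 min RT; streptavidin donor/Ni-chelate acceptor beads 10 ug/mL final, 20 min dark; AlphaScreen read.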
% is scaled to controls: 0 for no effect and ±100 for the full control effect; potency is read from the fitted curve at half-maximal effect; tags tell the direction and shape of the fitted curve.

Question: How did the “activity change, negative = inhibition” value turn out when `O=C1CCCCCN1C(=O)c1cccc(C(=O)N2CCCCCC2=O)c1` was run?
Answer: inactive: 2.11%

Question: How did the Potency turn out when `O=S(=O)(c1cccc2nsnc12)N1CCN(C/C=C\c2ccccc2)CC1` was run?
Answer: inconclusive: 22.4 µM [inhibitor, full curve]

Question: How did the Potency turn out when `Cc1ccc(C(=O)OCC(=O)c2ccc(CC(=O)N3CCOCC3)s2)cc1C` was run?
Answer: active: 50.1 µM

Question: For `Cc1cc2nc(CCN(C(=S)NCC3CCCO3)C3CCCC3)[nH]c2cc1C` (configuration not stated), which Potency is on record?
Answer: inconclusive: 39.8 µM [inhibitor, full curve, poor fit]

Question: Which “activity change, negative = inhibition” value does the source give for `O=C(NCCN1CCCCC1)Nc1ccc([N+](=O)[O-])cc1` here?
Answer: inactive: -8.89%

Question: `Cc1cc(NC(=O)CN2C(=O)NC3(CCCCC3)C2=O)ccc1N1CCCC1` was tested. Which “activity change, negative = inhibition” value did it give?
Answer: inactive: -30.6%

Question: `COc1cc(CN2CCC(Cc3ccccc3)CC2)cc(OC)c1OC` was tested. Which Potency did it give?
Answer: active: 79.4 µM

Question: How did the Potency turn out when `CCCC1=Nc2cc(C(=O)NCCN3CCOCC3)ccc2Sc2ccccc21` was run?
Answer: inconclusive: 50.1 µM [inhibitor, partial curve]

Question: Which Potency does the source give for `O=C(O)CCc1ccc(-c2ccccc2)n1-c1ccc(C(=O)O)cc1` here?
Answer: inactive

Question: For `COc1cc(OC)c2c(-c3ccccc3)cc(=O)oc2c1C(CC(=O)N1CCOCC1)c1ccc(N(C)C)cc1` (configuration not stated), which Potency is on record?
Answer: active: 35.5 µM

Question: With `COc1cc2ccccc2cc1C(=O)N(CCN(C)C)c1nc2c(OC)ccc(OC)c2s1` as the compound, how does the Potency read?
Answer: inconclusive: 14.1 µM [inhibitor, partial curve]

Question: How did the Potency turn out when `COc1ccccc1CNC(=O)[C@H](CCSC)NC(=O)[C@@H]1Cc2ccccc2CN1` was run?
Answer: inconclusive: 79.4 µM [inhibitor, single point]

Question: For `O=C(CCCOc1ccc(Cl)cc1Cl)N/N=C/c1ccco1`, which Potency is on record?
Answer: inconclusive: 70.8 µM [inhibitor, single point]

Question: Which Potency does the source give for `CC(C)CSC1=NSC2=NC(=O)/C(=C\c3coc4ccccc4c3=O)C(=N)N12` here?
Answer: active: 79.4 µM

Question: How did the “activity change, negative = inhibition” value turn out when `CCS(=O)(=O)N1CCN(C(=O)CC(C)C)CC1` was run?
Answer: inactive: -1.73%

Question: Which Potency does the source give for `COc1ccc(C(=O)n2nc(-c3ccc(C)cc3)nc2N)cc1OC` here?
Answer: inconclusive: 89.1 µM [inhibitor, single point]

Question: `Cc1cccc(Nc2nnc(-c3ccc(C)c(S(=O)(=O)N4CCN(C)CC4)c3)c3ccccc23)c1` was tested. Which Potency did it give?
Answer: inconclusive: 56.2 µM [inhibitor, partial curve]

Question: How did the Potency turn out when `O=C1c2ccccc2C(=O)N1CCN1CCc2ccccc21` was run?
Answer: active: 50.1 µM

Question: How did the Potency turn out when `CC1=CSC2=NC(=O)/C(=C/c3cccc(OC(=O)c4ccco4)c3)C(=N)N12` was run?
Answer: inconclusive: 44.7 µM [inhibitor, partial curve]

Question: How did the Potency turn out when `COC(=O)Cc1cc(=O)n2[nH]cnc2n1` was run?
Answer: active: 79.4 µM

Question: How did the Potency turn out when `COc1cc(NC(=O)c2cc([N+](=O)[O-])ccc2N2CCOCC2)ccc1NC(=O)c1ccco1` was run?
Answer: active: 70.8 µM

Question: With `NC(=S)N/N=C/c1c(O)c(Br)cc2oc3c(c12)CCCC3` as the compound, how does the Potency read?
Answer: inconclusive: 8.91 µM [inhibitor, full curve]

Question: `COc1ccc(C)cc1N1C(=N)/C(=C2/Nc3ccccc3S2)C(c2ccccc2)C1=O` (configuration not stated) was tested. Which Potency did it give?
Answer: inconclusive: 8.91 µM [inhibitor, full curve]

Question: For `Cc1[nH]c2ccccc2c1NC(=O)CN1CCN(c2cccc(C(F)(F)F)c2)CC1`, which Potency is on record?
Answer: active: 50.1 µM

Question: Which Potency does the source give for `CCN(CC)S(=O)(=O)c1ccc(NC2c3ncccc3C(=O)N2Cc2ccccc2)cc1` (configuration not stated) here?
Answer: inconclusive: 89.1 µM [inhibitor, single point]

Question: With `COc1ccc(OC)c(NC(=O)CC(=O)Nc2ccc3nc4n(c(=O)c3c2)CCCCC4)c1` as the compound, how does the “activity change, negative = inhibition” value read?
Answer: inactive: -14.2%

Question: With `COc1cc(/C=C/C(=O)NCCn2c(C)cc3ccccc32)cc(OC)c1OC` as the compound, how does the Potency read?
Answer: inconclusive: 79.4 µM [inhibitor, single point]

Question: For `CSc1nc(SCCO)c2sc3nc(-c4ccco4)c4c(c3c2n1)CC(C)(C)OC4`, which Potency is on record?
Answer: active: 31.6 µM

Question: `CC(C)(C)NC(=S)NC(=O)C12CCC3CC(CC(C3)C1)C2` was tested. Which Potency did it give?
Answer: active: 70.8 µM

Question: How did the Potency turn out when `CCC(=O)c1ccc(OCC(=O)N2CCCC2)c(OC)c1` was run?
Answer: active: 50.1 µM

Question: `Cc1cccc(NC(=O)N2CCC(CN3CCCCCC3)CC2)c1C` was tested. Which “activity change, negative = inhibition” value did it give?
Answer: inactive: -1.83%

Question: Which Potency does the source give for `COc1cccc(CNC(=O)C2CCCN(S(=O)(=O)c3ccc4c(c3)C(C)(C)C(=O)N4C)C2)c1` (configuration not stated) here?
Answer: inconclusive: 100 µM [inhibitor, single point]

Question: For `C=CCc1cccc(Cl)c1OCCCNC1CCCC1`, which Potency is on record?
Answer: inconclusive: 89.1 µM [inhibitor, single point]

Question: `O=C(CSc1nnc(-c2cccs2)o1)NCC1CN(Cc2ccccc2)CCO1` (configuration not stated) was tested. Which Potency did it give?
Answer: active: 56.2 µM

Question: With `Cc1cc(N=Nc2ccc3ccccc3c2)ccc1O` as the compound, how does the Potency read?
Answer: active: 28.2 µM

Question: With `COc1ccc(OCC(=O)N/N=C/C=C/c2ccccc2)cc1` as the compound, how does the “activity change, negative = inhibition” value read?
Answer: inactive: -1.5%

Question: Which “activity change, negative = inhibition” value does the source give for `CCn1c(SCc2nc(-c3ccccc3)no2)nnc1-c1cccs1` here?
Answer: inactive: -5.78%

Question: How did the Potency turn out when `O=C(Nc1ccccc1C(F)(F)F)N1CC=C(c2c[nH]c3ccccc23)CC1` was run?
Answer: inconclusive: 89.1 µM [inhibitor, single point]

Question: For `CCN1CCN(c2ccc(NC(=O)c3ccc(Cl)c(S(=O)(=O)N4CCCC4)c3)cc2)CC1`, which Potency is on record?
Answer: inconclusive: 89.1 µM [inhibitor, single point]

Question: With `COc1ccc(C2/C(=C(\O)c3ccc4c(c3)OCCO4)C(=O)C(=O)N2c2nc(C)c(C(C)=O)s2)cc1` (configuration not stated) as the compound, how does the Potency read?
Answer: inconclusive: 28.2 µM [inhibitor, single point]

Question: `COc1ccc(-c2cc3nc(C)c(CCC(=O)NC(C)c4ccccc4)c(C)n3n2)c(OC)c1` (configuration not stated) was tested. Which Potency did it give?
Answer: inconclusive: 70.8 µM [inhibitor, single point]

Question: How did the Potency turn out when `COCCNCC#CCOc1ccc(OC)cc1` was run?
Answer: active: 50.1 µM

Question: Which Potency does the source give for `O=C(O)c1cc(-c2ccc(-c3ccc(F)cc3)o2)nc2ccccc12` here?
Answer: inconclusive: 89.1 µM [inhibitor, single point]

Question: For `Nc1nc(NC(=O)c2cccs2)nn1-c1ccccc1`, which Potency is on record?
Answer: inconclusive: 89.1 µM [inhibitor, single point]

Question: Which Potency does the source give for `Cc1cc(-c2ccccc2)c2c(=O)n(-c3ccccc3)[nH]c2n1` here?
Answer: inconclusive: 50.1 µM [inhibitor, partial curve]

Question: With `COc1ccccc1Oc1cn[nH]c1-c1ccc(OCC(=O)NN)cc1O` as the compound, how does the Potency read?
Answer: inconclusive: 28.2 µM [inhibitor, full curve]

Question: `CCOC(=O)SC1=N/C(=C\c2ccc(N(C)C)cc2)C(=O)S1` was tested. Which Potency did it give?
Answer: active: 12.6 µM
